# Source: the supplement of paper PMC4466236
# Over roughly 33,000 sequences, “E-score (dimensionless, -0.5 to 0.5)” has its median near -0.058; the highest 2% begin near 0.35. This is one part of the list.
# Test system: MvaT
# Experiment: PBM 8-mer E-score (mean of HK and ME arrays) (E-score (dimensionless, -0.5 to 0.5)); higher = stronger relative binding preference; most listed sequences are background and not binding sites
# How it was run: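 Full-length P. aeruginosa MvaT carrying an N-terminal glutathione S-transferase tag was tested by protein binding microarray following a previously described protocol. Two universal double-stranded 60-mer arrays, ME and HK, were used, each with a constant 25-mer primer region and a variable 35-mer region covering all 8-mers. The rank-based E-score is the mean of the two arrays, parsed with a custom script. Its range runs from -0.5 to 0.5 for each 8-mer.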
row,Sequence,PBM 8-mer E-score
1,ATGATAGG,-0.0693
2,AGGGTCCA,-0.285
3,AGCAGTAA,0.0333
4,TTATTCAA,0.244
5,AGGGGCGA,-0.155
6,GTGGTTTA,0.197
7,CAGAGCGA,-0.261
8,CCTCGCAA,-0.0928
9,GCGCGCCA,-0.136
10,ACATCTAA,0.241
11,AACCCTCG,-0.248
12,CTCCCGCC,-0.271
13,AGCAGAGG,-0.2
14,ACGTTCTC,-0.0618
15,CGACCCAA,-0.0201
16,GAATTGTC,0.0347
17,ATCTGAGG,-0.0962
18,GGGGAACA,-0.0436
19,CGCTTCAC,-0.161
20,AGAGTAGG,-0.179
21,ACTCTTGC,0.0633
22,ATACCCGA,-0.0266
23,ACTGTGAA,0.0996
24,CACTTGCA,-0.05
25,CAAGGCGA,-0.231

row,Sequence,PBM 8-mer E-score
1,GGTGAGAA,-0.16
2,ACTCGATC,-0.132
3,CAGTTACG,0.0696
4,TCCAGAAA,-0.00806
5,ATGCTATC,-0.049
6,CTAAGTGA,-0.0925
7,CTCCGGAG,-0.311
8,CACCCTTC,-0.27
9,TTACATAA,0.317
10,TCCGCGGA,-0.0883
11,CAACAAAA,0.198
12,ACATTGAG,-0.0188
13,GACTTAGA,0.0453
14,CCCGTAAC,-0.0509
15,TGAGGCAA,-0.0518
16,AGGAAACG,-0.0786
17,ACGGTCAG,-0.285
18,ACTCTATG,-0.105
19,GCAGCGCA,-0.144
20,CTTTATCA,0.182
21,CAAACAAG,0.053
22,GCATCTCA,-0.157
23,ATGCATCA,0.0359
24,AAACGCCC,-0.174
25,CACAACTC,0.122

row,Sequence,PBM 8-mer E-score
1,ATACAAGG,0.0425
2,AGCCAGCG,-0.207
3,CGGAGTGA,-0.236
4,ACTCTCCT,-0.122
5,CCTAGGCC,-0.164
6,CAAAGGGG,-0.115
7,AGATTCAG,0.027
8,GCCGACGC,-0.271
9,AATGTCAG,-0.0492
10,CAAAGATC,-0.0152
11,ACTCTCTA,0.0484
12,GACGACAC,-0.134
13,CAGATGAA,-0.0605
14,AACAGCCG,-0.149
15,ACCGGCAA,-0.0705
16,AGTTTACC,0.154
17,ACAGCATA,0.147
18,ATGTTTTC,0.29
19,ATCAAATA,0.341
20,GATGTGCA,-0.168
21,ATGGTTGC,-0.0762
22,ATGACGTA,-0.0574
23,CAAGAACG,-0.172
24,CCTTGTTC,-0.189
25,CACCCAGA,-0.158

row,Sequence,PBM 8-mer E-score
1,CATTGGCG,-0.278
2,ATAGTGAC,-0.00907
3,ATCCTAAT,0.0737
4,ACCCAGCA,-0.147
5,ATCATCTA,0.0265
6,ATTCTAGG,0.127
7,AGGAACAG,-0.0974
8,CTACAGAC,-0.11
9,GCAGCGAA,-0.0745
10,AGGGACGG,-0.283
11,GGAGACAC,-0.0363
12,CACTATAC,0.17
13,AATGTGTA,0.313
14,TATCGCAA,0.0456
15,CAGAAGCC,-0.184
16,GAGTGAAC,-0.102
17,CGCCGCGC,-0.0801
18,CGCTACAC,-0.201
19,ACTTAACA,0.227
20,AGCTCACG,-0.226
21,ACAAAGCA,0.0758
22,ATCGTAAT,0.231
23,CCATTCAA,-0.00735
24,AGCTAATG,-0.0227
25,CGAGACAA,-0.0174

row,Sequence,PBM 8-mer E-score
1,ATACCTGC,0.0241
2,ACGTTATG,0.0994
3,CATGGCTA,-0.152
4,GCTTATTA,0.254
5,TCGCCTAA,0.00604
6,CCTAACAG,-0.0905
7,CGCAGTAC,-0.208
8,GACGGGCA,-0.125
9,AACTCGAA,0.0759
10,AGCTCATC,-0.199
11,GATGCAAC,0.0428
12,CGTTCAAC,-0.0408
13,CTTGCTGC,-0.206
14,ACACGAAG,-0.146
15,AGGAAAGG,-0.157
16,ACCGTGAG,-0.21
17,CTAGATCA,-0.0517
18,TTAAGGAA,0.158
19,CAGACTCA,-0.147
20,GTACACCA,0.119
21,ACTCGCCG,-0.141
22,CATCCCGC,-0.145
23,GGACGATA,0.0116
24,CGTCGCGC,-0.104
25,ATACGAGG,-0.0558

row,Sequence,PBM 8-mer E-score
1,AGCCGCGA,-0.146
2,ATGAGCGC,-0.128
3,AAAGATTA,0.25
4,CGCTCTTC,-0.0701
5,GATTCCGA,-0.155
6,AAACTAGT,0.271
7,GGACAGAA,-0.222
8,CTACATAG,0.0412
9,CTGATCCC,-0.264
10,ACCACGAC,-0.0669
11,GCTTGCGA,-0.137
12,ATTCATTG,0.041
13,AAGCTCAC,-0.0796
14,AGATGGCT,-0.175
15,CCCCTCGG,-0.309
16,ATCACATG,0.00336
17,ACAACGGA,0.0386
18,ATAAGTGA,0.131
19,AGCTGCCC,-0.276
20,AGCGTAGA,0.089
21,AATCAGGA,0.0421
22,GCCAATAC,0.0871
23,GACCCGCC,-0.0677
24,CTTTGAGA,0.104
25,ATTCCGCA,0.02

row,Sequence,PBM 8-mer E-score
1,AACCCATG,-0.0156
2,AAATGTTC,0.268
3,CTAAAAGC,0.0279
4,CCCCCTTC,-0.313
5,CAACATTC,0.0806
6,TGCCACAA,-0.0593
7,CGTTACGC,-0.179
8,TAACGGAA,0.127
9,CACTTGGG,-0.254
10,ACCCGGGT,-0.308
11,AGCGCTTC,-0.154
12,CCCGAACG,-0.147
13,CAAAATGG,-0.00562
14,ATGGCAAG,-0.0973
15,AGTATCAG,0.0345
16,AAGAGCAT,0.0169
17,ACATGGTG,-0.175
18,ACGGGACC,-0.144
19,CTCGAGGA,-0.0766
20,CCGGCAAA,-0.0766
21,AGCACAAT,0.085
22,ACACCATC,0.0357
23,GTAATAAA,0.333
24,GTCAGTTA,0.143
25,CATGTGGG,-0.189

row,Sequence,PBM 8-mer E-score
1,AACGGTTC,0.0992
2,CACAGTGA,-0.0186
3,ACCTGTTC,-0.177
4,AAAGACAA,0.166
5,ACCGACGT,-0.223
6,ATCTACTG,0.0718
7,GCACGTTA,0.0767
8,ACCATAAT,0.243
9,CCCAGGCG,-0.27
10,CTCTTCTC,-0.255
11,CATTCACA,0.114
12,ACTTGCTC,0.0161
13,CATGTTTA,0.301
14,TCTTGCCA,-0.124
15,TCAGGGAA,-0.121
16,GCGCCATA,-0.148
17,AGTTTGCA,0.21
18,AAATGCAG,0.0248
19,CCGATCCC,-0.25
20,CGTCGTAA,0.0228
21,CACAGATC,-0.0583
22,AATGGGTC,-0.0317
23,AAATTCTG,0.0652
24,AAGATTGG,0.154
25,GGCACGAC,-0.198

row,Sequence,PBM 8-mer E-score
1,AGAGACTA,0.0381
2,CACAGCTC,-0.105
3,CAACTTCC,0.0684
4,ACCTAGTG,-0.0746
5,GAAATGAC,-0.0603
6,AATTTTGC,0.288
7,AAGCCCTG,-0.301
8,AATATGCG,0.209
9,CCACTATA,0.172
10,GTTTCCGA,0.0421
11,CCCATTCG,-0.0815
12,GCCGGAGC,-0.245
13,GCAGGACC,-0.179
14,CCATATGC,0.0291
15,CAGCATCG,-0.0938
16,AGGGATTC,-0.0322
17,CGCTGGCA,-0.0979
18,CCTATTAG,0.0715
19,CCCCATAA,-0.152
